Counter-ions that a name gives are not always drawn. ± gives the standard deviation of the averaged measurements. In all, about 3,100 compounds were measured (“mean cytoplasmic OPP incorporation (global translation) relative to DMSO”: median about 100, lowest 2% from about 56 on). The list shows a part of the results.
Tested on: U2OS
Experiment: mean cytoplasmic OPP incorporation (global translation) relative to DMSO (% of DMSO); higher = more protein synthesis
Conditions: 10 µM; 24 h
Procedure: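 Primary image-based screen in U2OS cells: compounds at 10 uM for 24 h, then a 1 h o-propargyl-puromycin (OPP) pulse, click labelling, and high-throughput microscopy. Mean cytoplasmic OPP intensity and nuclei count were normalised to DMSO wells within each plate (DMSO = 100) and averaged over triplicate plates.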

In order of rising “mean cytoplasmic OPP incorporation” value:
1. CCCSc1ccc2[nH]c(NC(=O)OC)nc2c1 [Albendazole]  78.4
2. C[C@@H](O)[C@H]1C(=O)N2C(C(=O)O)=C(SCCNC=N)C[C@H]12 [Imipenem]  80.8
3. O=C(COc1cccc2c(=O)[nH]ccc12)c1ccccc1  85.4
4. CCCSc1ccc2[nH]c(NC(=O)OC)nc2c1 [Albendazole (Albenza)]  85.4
5. O=C1NC(=O)/C(=C/c2ccc3nccc(-c4ccncc4)c3c2)S1  90.1
6. CCCCCN(C)CCC(O)(P(=O)(O)O)P(=O)(O)O [Ibandronate sodium]  90.9 ± 2.9
7. N#C/C(=C\c1ccc(O)c(O)c1)C(=O)Nc1ccccc1  90.9
8. CNc1cc2c(Nc3cccc(Br)c3)ncnc2cn1  91.2
9. CC(=O)OCC(=O)NCCCOc1cccc(CN2CCCCC2)c1 [Roxatidine Acetate HCl]  94.4
10. O=C1NCCN1c1ncc([N+](=O)[O-])s1 [Niridazole]  94.7
11. OC[C@@H](O)[C@@H](O)[C@H](O)[C@H](O)CO [D-Mannitol (Osmitrol)]  97.4
12. O=C1NC(=O)C(c2ccccc2[N+](=O)[O-])=C1Nc1ccc(O)c(Cl)c1  97.4 ± 0.18
13. NCC1CCC(C(=O)N[C@@H](Cc2ccccc2)C(=O)Nc2ccc(CC(=O)O)cc2)CC1 (some centres not stated)  97.5
14. O=C(O)C1=C[C@@H](O)[C@@H](O)[C@H](O)C1 [Shikimic acid (Shikimate)]  97.7
15. O=C(O)Cn1c(C(=O)Nc2nc(-c3ccccc3Cl)cs2)cc2ccccc21  98
16. CC(C)OC(=O)C(C(=O)OC(C)C)=C1SC=CS1 [Malotilate]  98.1
17. OCC(O)CN1CCN(c2ccccc2)CC1 (racemic) [Dropropizine (R,S)]  99.2
18. CS(=O)(=O)c1ccc([C@@H](O)[C@@H](CF)NC(=O)C(Cl)Cl)cc1 [Florfenicol]  99.5
19. C[C@H](NCc1ccc(OCc2cccc(F)c2)cc1)C(N)=O  100
20. CC(Oc1ccc(O)cc1)(P(=O)(O)O)P(=O)(O)O  100 ± 3.4
21. Cc1c(Cl)cccc1Nc1ccccc1C(=O)O [Tolfenamic acid]  100
22. Oc1ccc(C2CNCCc3c2cc(O)c(O)c3Cl)cc1 (configuration not stated) [Fenoldopam hydrochloride]  101
23. OC[C@H]1OC(O)[C@H](O)[C@@H](O)[C@@H]1O (stereo partly drawn) [Dextrose (D-glucose)]  101
24. CCn1cc(C(=O)O)c(=O)c2cc(F)c(N3CCNCC3)nc21 [Enoxacin]  102
25. CN(C)CCC1(c2ccc(Cl)cc2)Cc2ccccc2C(=O)O1 (racemic) [(±)-AC 7954 hydrochloride]  102
26. CC(C)(C)C(=O)OCOC(=O)[C@@H]1N2C(=O)[C@@H](/N=C/N3CCCCCC3)[C@H]2SC1(C)C [Pivmecillinam hydrochloride]  103
27. O=C(c1ccc(F)cc1)C1CCN(CCCCc2ccccc2)CC1 [4-(4-Fluorobenzoyl)-1-(4-phenylbutyl)-piperidine oxalate]  103
28. C[Se]CC[C@H](N)C(=O)O [Selenomethionine]  103
29. CC(C(=O)O)c1cccc(Oc2ccccc2)c1 (configuration not stated) [Fenoprofen calcium salt dihydrate]  103
30. CCNC(=O)[C@H]1O[C@@H](n2cnc3c(N)nc(NCCc4ccc(CCC(=O)O)cc4)nc32)[C@H](O)[C@@H]1O  104
31. c1ccc2c(c1)CCCC2C1=NCCN1 (configuration not stated) [Tetrahydrozoline hydrochloride]  104
32. C1N2CN3CN1CN(C2)C3 [Methenamine]  104
33. CCCc1ncc(C[n+]2ccccc2C)c(N)n1 [Amprolium hydrochloride]  104
34. CCN(CC)CCCC(C)Nc1ccnc2cc(Cl)ccc12 (configuration not stated) [Chloroquine diphosphate]  105
35. CN=c1nc(-c2ccccc2)n(-c2ccccc2)s1  105
36. CC(C(=O)O)c1cccc(Oc2ccccc2)c1 (configuration not stated) [Fenoprofen calcium hydrate]  105
37. CO[C@H]1/C=C/O[C@@]2(C)Oc3c(C)c(O)c4c(O)c(c(/C=N/N5CCN(C)CC5)c(O)c4c3C2=O)NC(=O)/C(C)=C\C=C\[C@H](C)[C@H](O)[C@@H](C)[C@@H](O)[C@@H](C)[C@H](OC(C)=O)[C@@H]1C [Rifampicin]  107.5 ± 0.81
38. C=CCc1ccc(O)c(OC)c1 [Eugenol]  109
39. CO[C@H]1/C=C/O[C@@]2(C)Oc3c(C)c(O)c4c(O)c(c(/C=N/N5CCN(C)CC5)c(O)c4c3C2=O)NC(=O)/C(C)=C\C=C\[C@H](C)[C@H](O)[C@@H](C)[C@@H](O)[C@@H](C)[C@H](OC(C)=O)[C@@H]1C [Rifampin (Rifadin, Rimactane)]  109
40. CNc1ncnc2c1ncn2[C@@H]1O[C@H](CO)[C@@H](O)[C@H]1O [N6-methyladenosine]  111
41. CN1Cc2c(C(=O)OC(C)(C)C)ncn2-c2ccsc2C1=O  114
42. CC[C@]12C=CCN3CC[C@@]4(c5cc([C@@]6(C(=O)OC)C[C@@H]7C[C@@H](C(C)(F)F)CN(Cc8c6[nH]c6ccccc86)C7)c(OC)cc5N(C)[C@H]4[C@@](O)(C(=O)OC)[C@@H]1OC(C)=O)[C@@H]32 [Vinflunine Tartrate]  123

Reference: the supplement of paper PMC8183993
